# This is one part of the list. At the low end of the ranking, values are background and their order means little.
# Target: SIX1 homeodomain (reference allele) (UniProt Q15475)
# Assay: universal protein binding microarray
# Conditions: Universal all-10-mer PBM (8x60K, AMADID 030236), 300 nM GST-tagged protein, Alexa Fluor 488 anti-GST; buffer, salt, pH and temperature not stated; high values mean tight binding; most listed sequences are background and not binding sites; double strand, one strand shown
row,Sequence,binding signal [E-score]
1,AATCGGAG,0.0749
2,ATGGTTTG,0.037
3,ATCAGGAA,0.165
4,GATGACGA,0.00198
5,ATGAGATG,0.243
6,CGGCAGGC,-0.0966
7,GAGACTCA,-0.193
8,CCATAATA,0.299
9,AAGTGCTG,-0.389
10,CGGTGCGA,0.0228
11,CTCAAGCA,-0.117
12,GGGATTTA,0.124
13,ATTGGCGA,0.0128
14,ATCTAGAC,0.161
15,GAGCCTAC,-0.0272
16,GCAATGGA,-0.114
17,CTCTCGTA,-0.0431
18,GAATTTTA,-0.2
19,GTCCTGTA,-0.119
20,AGGTTACA,-0.119
21,AGGTGTCC,0.274
22,GCTCAATA,0.0657
23,ATACACTG,0.338
24,GGGCGTTA,-0.166
25,AAAACCAA,-0.227

row,Sequence,binding signal [E-score]
1,GTTGCTAA,-0.093
2,ACAAAGAG,-0.0436
3,CAGGGCCC,-0.218
4,CTGCCGGC,-0.262
5,ATCTTTCA,0.147
6,CTTAGAAG,0.113
7,ATGCCCGA,0.0549
8,AAGGCCGC,-0.256
9,GCGTTGCA,-0.0762
10,CGTGTAGC,-0.0544
11,CGTGCTAC,-0.196
12,AAGTCCCC,-0.313
13,GTTTGACA,0.0344
14,AATAAACA,-0.19
15,ACTGGCAC,0.0178
16,CAAGTCAA,-0.141
17,ATCAAAGA,0.0736
18,CTGGTATA,0.255
19,ACGGCCGC,-0.14
20,ATTTTGCA,-0.25
21,ATCCCCCA,0.392
22,ACCGTTTA,-0.00455
23,ACGTGGTG,0.109
24,GGTGGCCA,-0.228
25,GCACCGGC,-0.0302

row,Sequence,binding signal [E-score]
1,CCCGTCCC,-0.0319
2,AAAGCGTA,-0.0808
3,CAACCGAG,-0.0891
4,ATATACAC,0.35
5,TCCATAAA,-0.163
6,CTCTACTC,-0.0443
7,AAGTTTGG,-0.232
8,GAGTAATC,0.0857
9,CACAGCAG,-0.0291
10,ATTCCAAG,-0.0107
11,AAGTTGGA,-0.123
12,ACACAATA,0.138
13,CCTGCCAA,-0.273
14,AGCTTTAT,-0.192
15,CTCCAAGA,-0.145
16,AGACACTA,0.0219
17,ACGTCCCA,-0.198
18,ACCCGGAC,-0.0377
19,ACGTATAA,0.268
20,CGGCGCCC,-0.241
21,ATTAGTGC,-0.0649
22,CCATGAAC,-0.0835
23,AGCGGTAC,0.0399
24,AGGAGCGC,-0.155
25,ACTCTTGG,-0.0355

row,Sequence,binding signal [E-score]
1,CAATTGCC,-0.134
2,ACTCATCG,-0.133
3,ATGCCGTA,0.0342
4,GGTCCAGA,-0.2
5,CGGTCAGA,-0.00541
6,CTACGGTC,-0.215
7,CTACGATA,0.321
8,GACCAGCC,-0.17
9,GCCCTTTA,-0.209
10,CGGCGTTA,-0.0987
11,GGAAGGTA,0.0419
12,GGACTCTA,-0.133
13,AATTACAT,-0.0193
14,GAGGCAGC,-0.191
15,CCACGAGA,0.00767
16,ACGAGATA,0.242
17,ATATAGAG,0.202
18,AGTAAAAC,-0.00906
19,ACGGGACT,-0.244
20,AGCGTAGC,-0.22
21,GCACCATA,0.0347
22,CATACAGG,0.148
23,CAGCGCGC,-0.225
24,GTAAAGTA,0.0213
25,TCAATGCA,-0.0927

row,Sequence,binding signal [E-score]
1,ATTCGACC,-0.152
2,GAAGCTGC,-0.0612
3,ACGCCACT,-0.0852
4,GAGGTAAA,-0.269
5,CAGGGGAA,0.0748
6,CTGAAGCC,-0.191
7,ACCACCTG,0.0688
8,CAAGCATG,-0.0273
9,AGCCCGTG,0.0107
10,CCAACTGC,-0.126
11,AGTTTGAC,-0.153
12,ACACAAAT,-0.0105
13,ACTTACCA,0.0574
14,GTCCGTGA,-0.105
15,CATCCTGA,0.169
16,ACTTTAGG,-0.0969
17,CACTTTGC,-0.07
18,AGGTGGCA,-0.158
19,AGCAGCCA,-0.322
20,ATAATGAC,0.0838
21,AGAACGGC,0.105
22,ATCATAAA,0.143
23,CAATGCGA,0.0352
24,AAGTATCA,0.461
25,ATTTTCCG,-0.112

row,Sequence,binding signal [E-score]
1,GCTTCTCA,0.165
2,ATTTCAGC,-0.222
3,CAAGGCCC,-0.288
4,GACACTGC,0.134
5,AAAATCTG,-0.053
6,AATTGTCA,-0.15
7,GACGTTGA,-0.0747
8,CATAATCG,0.00656
9,CGGATAAG,0.187
10,GCAAGTAC,-0.332
11,CATAATTC,-0.198
12,CCGACTTA,0.0412
13,CCTGCAAG,0.064
14,AATCGGGG,0.181
15,ACACGCGG,-0.019
16,ATGCACCA,0.0323
17,GCAGCATA,-0.0476
18,AAGTAGCA,-0.29
19,ACAGCAGT,0.0849
20,ACTCGGCT,-0.185
21,AAACATAT,0.149
22,ACACCAAT,0.348
23,AAATTACG,-0.261
24,GTCCGGGA,-0.0803
25,CGTAACCA,-0.239

row,Sequence,binding signal [E-score]
1,CCACTACA,0.129
2,ACCCTATA,0.195
3,ATGGCTGA,0.06
4,GGCGCGCA,-0.115
5,GGGTATAC,0.416
6,GCGGTTAA,-0.125
7,CCACTCTC,-0.0439
8,AGAATACA,0.051
9,ACTTAAGG,-0.0431
10,ATCCACAG,0.244
11,CTCAGAGC,-0.0696
12,GCCGCTAA,-0.219
13,CCACCTCG,-0.0811
14,GAGAGTAC,-0.212
15,CGCGCCCA,-0.0194
16,TATGCACA,0.134
17,CTTTGACC,-0.108
18,CTGCGTCC,-0.26
19,CTACTCTC,0.0646
20,ACTTGCTG,-0.188
21,AATCGTGG,-0.0848
22,ACCTGTAG,-0.146
